153 variants from a collection of fitness landscapes (doi:10.1126/science.1257360) can be followed below.

The chains are these.
B1: PhoQ; a variant is named by its letters at X, in order, P23837 (parent)
chain: MKKLLRLFFPLSLRVRFLLATAAVVLVLSLAYGMVALIGYSVSFDKTTFRLLRGESNLFYTLAKWENNKLHVELPENIDKQSPTMTLIYDENGQLLWAQRDVPWLMKMIQPDWLKSNGFHEIEADVNDTSLLLSGDHSIQQQLQEVREDDDDAEMTHSVAVNVYPATSRMPKLTIVVVDTIPVELKSSYMVWSWFIYVLSANLLLVIPLLWVAAWWSLRPIEALAKEVRELEEHNRELLNPATTRELTSLVRNLNRLLKSERERYDKYRTTLTDLTHSLKTPLXXLQXXLRSLRSEKMSVSDAEPVMLEQISRISQQIGYYLHRASMRGGTLLSRELHPVAPLLDNLTSALNKVYQRKGVNISLDISPEISFVGEQNDFVEVMGNVLDNACKYCLEFVEISARQTDEHLYIVVEDDGPGIPLSKREVIFDRGQRVDTLRPGQGVGLAVAREITEQYEGKIVAGESMLGGARMEVIFGRQHSAPKDE

The other results are listed elsewhere or left out.

The test covers variants of B1. Description: enrichment ratio after two sorts for PhoP signalling (ratio (wild type AVST 3.29)); higher = more functional. The note with it: with PhoP (E. coli).
On to VLEK, for which the enrichment ratio is at most 0.25. To HLGY belongs at most 0.25.

Regarding EFQQ, the enrichment ratio was at most 0.25. Turning to FMAH, the enrichment ratio is at most 0.25. Consider GYHM, for which the enrichment ratio is at most 0.25. To DSSW belongs at most 0.25. To MKRV belongs at most 0.25. To WGTL belongs at most 0.25; to SQCC, 8.97; to NCRK, at most 0.25. Regarding STLN, the enrichment ratio was determined as 14.8. To MHKY belongs at most 0.25.

For RDHN, the enrichment ratio is at most 0.25. Turning to YVAW, the enrichment ratio was at most 0.25. To VGIP belongs at most 0.25; to NMLS, at most 0.25. On to ITLM, for which the enrichment ratio turned out to be 8.61. To QFTP belongs at most 0.25; to VMMT, at most 0.25; to KIPW, at most 0.25. To RDDF belongs at most 0.25; to ITFQ, at most 0.25; to ANTV, 16.3. To AMCT belongs 5.79; to LVMS, at most 0.25. Turning to PMPF, the enrichment ratio is at most 0.25. Then HWNR, with at most 0.25; and WFKN, with at most 0.25; and IKPQ, with at most 0.25. For VYFI, the enrichment ratio is at most 0.25. To MVME belongs at most 0.25; to FTKR, at most 0.25; to PQSR, at most 0.25. To PLHG belongs at most 0.25; to WRCV, at most 0.25. Consider EFGL, for which the enrichment ratio was at most 0.25. Take INHY: the enrichment ratio is at most 0.25. To EIAW belongs at most 0.25; to INHP, 0.855.

Consider FENQ, for which the enrichment ratio was at most 0.25. Then HRMF, with at most 0.25.

Turning to WHKA, the enrichment ratio is at most 0.25. For DHPM, the enrichment ratio is at most 0.25.

Regarding SWTF, the enrichment ratio is at most 0.25.

For TVPC, the enrichment ratio was at most 0.25. For DNNT, the enrichment ratio is at most 0.25.

With MYMD, the enrichment ratio is at most 0.25. To QGNY belongs at most 0.25; to AMWC, at most 0.25; to HLFN, at most 0.25. For the variant SELP, the enrichment ratio is at most 0.25. Regarding KFIA, the enrichment ratio was at most 0.25.

Regarding VGPI, the enrichment ratio is at most 0.25. Then AHFK, with at most 0.25. As to GKAC, the enrichment ratio was at most 0.25. Then TYQR, with at most 0.25; and SVMG, with 5.71; and EIWY, with at most 0.25. Then QQIY, with at most 0.25; and VRNY, with at most 0.25. Then HWFN, with at most 0.25. As to IHNS, the enrichment ratio is at most 0.25. Then KEPC, with at most 0.25. Then KPML, with at most 0.25; and DQKY, with at most 0.25; and PSES, with at most 0.25. Then DQIQ, with at most 0.25.

With KPPY, the enrichment ratio was at most 0.25. As for MHWS, the enrichment ratio is at most 0.25. Then EGPE, with at most 0.25; and PCTQ, with at most 0.25. Then PDFW, with 1.24. Then NYFT, with at most 0.25; and HHCK, with at most 0.25; and NRKD, with at most 0.25.

Take NWPE: the enrichment ratio is at most 0.25. Then ERLD, with at most 0.25; and FHNC, with at most 0.25. Then SPAT, with at most 0.25.

For the variant VAMA, the enrichment ratio was at most 0.25. As for SFGG, the enrichment ratio is at most 0.25. Then EYWT, with at most 0.25. Then AGHP, with at most 0.25. Then YYAV, with at most 0.25. For the variant PYLK, the enrichment ratio is at most 0.25.

In the case of SDNF, the enrichment ratio was at most 0.25. Then EAMN, with at most 0.25; and HHSY, with at most 0.25. To LITL belongs at most 0.25; to YRNW, at most 0.25. Then VHMV, with at most 0.25; and HNNI, with at most 0.25; and ANMH, with 4.13. As for TMKP, the enrichment ratio was at most 0.25. For VYVI, the enrichment ratio is at most 0.25.

For TVLD, the enrichment ratio is at most 0.25.

In the case of QRYV, the enrichment ratio was at most 0.25. To EPSA belongs at most 0.25; to HNHC, at most 0.25. Then RMTK, with at most 0.25; and APII, with at most 0.25; and CLLL, with at most 0.25. Turning to IRPQ, the enrichment ratio is at most 0.25. To EGIR belongs at most 0.25; to AVCG, 16. Turning to KIKI, the enrichment ratio is at most 0.25. For the variant NRTA, the enrichment ratio is at most 0.25. To TYLK belongs at most 0.25. For TGQG, the enrichment ratio worked out at 15.7.

QWFH: the enrichment ratio is at most 0.25. Then DYDC, with at most 0.25; and QGRV, with at most 0.25; and NGHA, with at most 0.25. Consider NAYL, for which the enrichment ratio is at most 0.25.

Consider MRVM, for which the enrichment ratio is at most 0.25. Then VAVQ, with at most 0.25; and IITA, with at most 0.25; and KHYK, with at most 0.25. Then GHSG, with at most 0.25; and PLFF, with at most 0.25.

With EHVH, the enrichment ratio is at most 0.25. Then MPEL, with at most 0.25. To YVCD belongs at most 0.25. Then IGPH, with at most 0.25. Turning to FGPR, the enrichment ratio was at most 0.25.

As for VDMI, the enrichment ratio was at most 0.25.

Take FKAK: the enrichment ratio is at most 0.25. To RPIM belongs at most 0.25; to HSLC, 0.563; to DRPD, at most 0.25. Then SDMP, with at most 0.25; and YFPC, with at most 0.25; and HHQY, with at most 0.25. To DICN belongs at most 0.25; to ITGF, at most 0.25. PPRK: the enrichment ratio was at most 0.25.

For the variant VENQ, the enrichment ratio was at most 0.25.

For AITG, the enrichment ratio was determined as 11.5. In the case of WTDF, the enrichment ratio is at most 0.25. Then PIIL, with at most 0.25; and FRSF, with at most 0.25; and IPNW, with at most 0.25. Then TTRC, with at most 0.25; and DCIG, with at most 0.25; and IIWQ, with at most 0.25. To RIQS belongs at most 0.25; to DAFV, at most 0.25; to GAGM, 0.739. On to GHHE, for which the enrichment ratio is at most 0.25.

Take AMYG: the enrichment ratio is at most 0.25.

DSST: the enrichment ratio is at most 0.25.

As to APNI, the enrichment ratio was at most 0.25. Then VEHA, with at most 0.25.
